Read counts are not given, so values of variants with three or more changes are uncertain.
B1: OR4K15 (parent)
chain: GUUAACGGUCAUAGGCCAUGGAAACUAGGAGCACCAUUUCGCUGCCAGUGAAGAAAUGAACAAAGAAAAUCUGGGCCAGGCAGGCAUCAAAAGAAAUAGUCUUGCGCUCAACCAGAAAGUCUGUAAUCAUUUUAAGGGUA

Variants of: B1
Assay: self-cleavage, relative activity (ratio to wild type); higher = more cleavage; in vitro, sequencing; the parent is a self-cleaving ribozyme

Variant	self-cleavage
C34U A82G A94G	0.28
A27U A59U A91G A125G	0.47
A18C G74U U102C A114U	0
A51G A66G A82G A96G	0.97
U49A A68G U87C	0.72
C10U A52G A94G	0.5
A33U A66G A92G A94G A117G U120C	0.68
U37C A64G U124C	0.49
A5G A36C A55G	0.42
A51G A98G U133C	0.88
A24G A78G A95G U132C	0.19
A5C A23G A59G A62G A91G A94G A96G	0.35
A13G U19C G138U	1.4
A23G U39A A92G A126G	0.71
U37C U103A U122A	0.74
A33G U57G A69G A90G A96G	0.5
U3A A11C A59G A63G A118G	0.71
A62C A92G A94G	0.8
A24C A59U A118G U139C	1.19
G7U U19C A22G	1.46
A24G A95G U103C U130C	0.84
G20U U49C G123A	1.29
A51G A90G A117G	0.99
A55G A95G A118U A129G	0.29
U70C A94G C101A	0.12

Variant	self-cleavage
C77U A78G A89G	0.09
A22G U100C U132C	2.13
A5G A23G A56G A68G U87C A135U	0.83
A24G A114U U139C	0.14
A51G A82U A117G	0.28
A30G U97A A116G	0.35
A23G A55G A82U A86U	0.27
U19C A33G A66U A96G	0.42
A24G U70G U103C	1.07
G50A A67U A69G A96G U102C	1.41
U26C A55G A92G	0.94
A60G A62U U102C	2.1
U87C C112U U132C	0
A23U U72C U102C	0.5
A23G A33G A64G	1.09
C17A U43C U133A	1.02
U26C A47G A54G A64G A89U A96G U108C	0.02
U2C A13U A22G A111G U139C	0.07
A23G U43C A90G U127C	1.04
U19C A22G A90C	0.63
A18U A66G U103A U120C	0.56
A90G A92G U102C	1.83
A36G A52G A56G U139C	1.17
U26C A56G A116G	0.97
A47G A96U U139A	1.07

Variant	self-cleavage
A30G A63G U103C	0.7
A82U A92U A95G U127A	0.29
A13G A91G C121U	1.73
G7A A36G A67G A140G	1.64
A13G U37C G50U	0.75
A55G U100C U133C	2.7
U2C A54G A90G	1.6
A90G A96G A135U	1.5
A118G U130C U132C	0.5
A18U A52G A78G U97A A117G	0.32
A27G C77U A95G	1.48
U3C A18G A59G U102A A110U	0.9
C25U A64G A110G A111G A135U	0
A52G A90G G115A	0.11
U49C A90U A95G U108C	0
G50U U108C A129G	0.01
A24G A67G U70C A90G A110C	0.11
U39A A51U A69G U87G	0.09
U19C C32U U43C U102C A118G	1.67
A22G U38A A54U	1.05
A56G A68G A125U U127C	0.34
A18G A54G A134G	1.59
A23G A33G A51G U120C	0.27
U43C G48A U108C	0.01
U37C A54U C107U	0.01

Variant	self-cleavage
U9C A62G A67C U87A	1.4
C25U A30G U39C U102C	0.77
A114G A129C U131C	0.15
U2C A55G A56G	1.14
A5G A24G A134G	0.81
A67G A95G G123A	1.68
U9C A47C A56G A60G A64U G104A U120C	0.02
A54U A68G A86C C113A	0.02
U2C A22C U38C U108A A125G	0
A23G U72C A78G	0.24
A67G A68G U100C	1.16
A51G A96G U103G	0.05
U9C U39C A111G	0.04
A22G U37C G115A	0.03
A51G A68G A129G	0.99
A11G U19C C35A U70C A82U	0.17
A54G A94G A111G U130C	0
A5U A63G A69G A86U A92G	1.46
A55G U72C A114U	0.1
A33U G53U C81U	0.44
U19A U57A A96G A114G	0.29
A51G A67G A68G U87A U132C	1.65
U9C G58A A91G	1.1
A68G A96G U127A	1.15
U37C A59U G104A	0.06

Variant	self-cleavage
A27G U37C A63G A126G	1.07
G31C U70C A92G	0.33
A90G A91G U122C	0.84
A24G U43C U49C A67G A78U A111G U131C	0.01
C6U A116C U130C	0.05
U2A U103C A110G	0
A27U A64U A78G U108C	0.03
U49C A118G U120C U122C	0.3
U43C U72C G74U U120A	0.09
G20A A86C U132C	1.13
U12C A62G A82U A126G	0.19
U19C A118G U120C	0.89
A11G U37C A94G C112U U122C	0.01
U39C A47U A63G A67G	1
U72A U103A A114U	0.55
U2C G31A A64C A94G	1
U39C U49C U103C	0.75
U57A A92G A117G	0.16
A68G U72C A129G	0.08
A23G A56G U87C A94G	1.54
A23G U49A A55G	1.03
A5G U38C A116G	0.95
U9G A47G A66G	0.92
U2A A56G A60G A78U	0.22
U12A A68U A78G A91G	0.12

Variant	self-cleavage
A30G A63G A117C	0.78
U9C C32U U37C U87C A126U U127C	0.52
A4G U108A U131C	0.05
A11G A24G A69G A90G	1.07
U2C C6U A36U C42A A56G	0.56
A24G A63G A78G U87C C113U	0.06
U39C U103C C112G	0.01
U26C A60G U133C	1.02
A22G G44A U49C A62G A92G A94G U100C	1.65
U2C A30G A51G	0.93
A67G A78U U130C	0.11
U38C U103C A116U U120C	0.03
G1U U9A A30G U43G	1.77
A24C A90U A126G U127C	0.65
C45G A114U U132A	0.06
A18U U19G A47G	1.03
U39C A59G U102C	2.06
U9C U19C A23G A68G	0.77
A82U U122G U130C	0.08
U2C A52G A59C U130C	0.2
A86C A96C A110G	0.03
A118G U120C G137A	0.62
A27U U38C A90G A126G	1.8
U103C A111G A126G	0
A5G A22U A30G U122C	0.79

Variant	self-cleavage
A11G A68G U139A	0.84
U49A A56G A60G U102C	1.23
A23G A92G A94G A118U	0.26
A5G A24C U39A	1.25
A59G A67G U97C U100C A140G	1.86
A66U A111G A140G	0.01
G31A A36G U49G G50U A118G A125G	0.19
A33G A63G A67G	0.93
A60G G73A A111G	0.03
U2G U102C U103C	0
A11G U57G U97C A117G U139C	0.95
U37C A51G C88U C128A	1.91
A23G U38C A78G A95G U127C	0.08
A55G U132C A134G	1.12
A5G A11G G20U A111G	0.08
U37C U43A U132C	2.08
A5U A116C U130C	0.06
A82G U100C U102A A129G	1.14
U39A A69G A140G	0.35
U3C A30G A60G U72A U97A U102A	0.11
C40A A63G U122C	1.81
U2C U3C A11U A23U A56G U87G A91G	0.04
U19A A96G U103G U124A	0.01

From the RNAGym collection of RNA variant scans (doi:10.7554/elife.90254)
